Data on one protein can be found in article PMC3437384 (Biochemistry, 2012).

This data set deals with the molecule itself. Kind of data set: NMR 15N-T2 relaxation against protein concentration.

B1: N-domain of cardiac troponin C with the L48Q mutation, cNTnC(L48Q) (domain or fragment)
chain: not shown
Turning to B1, the Kd (in general, the equilibrium constant for the complex coming apart) is about 2000 µM.
